Measured values published in PubChem BioAssay (NCATS).
Inconclusive results, whose numbers are uncertain, are shown with a selection of clear calls. For part of these data: Where the call is inconclusive, the potency comes from a doubtful curve fit. For part of these data: “Side channel” marks fits to a control or component signal instead of the main read-out. Active and inactive are the calls of the source. Unless noted, the call rests on the fitted dose curve; in most records, active means well fitted curve in either direction with a large enough effect (not every such curve was filed as active); inconclusive means small, poorly fitted or top-dose-only effect, or another doubt; inactive means flat fitted curve, though single readings scatter.

What was measured:
[1] = AP1 Signaling Pathway (AID 357); conditions: ME-180 AP-1-bla reporter, EGF-induced, beta-lactamase ratio, 5 h; at 17.2 µM (top of the series) unless noted;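 further: ME-180 reporter cells stimulated with EGF at its EC50 level; top concentration of the series differs between compounds; on the % scale 0 is the no-effect control and ±100 the full control effect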
Outline: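 A ratiometric CCF4 readout (405 nm excitation; 460 and 530 nm emission) quantified AP-1-driven beta-lactamase in ME-180 cells after 5 h with compound and EC50 EGF; AC50 values were derived for activators and inhibitors.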

[2] = NFAT Signaling Pathway (AID 444); conditions: Jurkat NFAT-bla M1, carbachol, beta-lactamase ratio, 5 h; at 17.2 µM (top of the series) unless noted;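 further: carbachol stimulus at about its EC50 of 1 µM final; on the % scale 0 is the no-effect control and ±100 the full control effect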
Outline: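 Jurkat cells carrying an NFAT-driven β-lactamase reporter and co-transfected muscarinic M1 receptor were treated with compound plus carbachol (1 uM final, an EC50 level) for 5 h at 37 °C. CCF4 loading followed for 1 h at RT; 460/530 nm ratio gave %activity.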

[3] = Stat Signaling Pathway (AID 446); conditions: ME-180 SIE beta-lactamase reporter, IL-6 stimulated, 5 h; at 7.69 µM (top of the series) unless noted;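 further: ME-180 cervical cancer cells given 40 pM IL-6 alongside compound; SIE-controlled beta-lactamase reporter measured as 460/530 nm FRET emission ratio; top concentration of the series differs between compounds; on the % scale 0 is the no-effect control and ±100 the full control effect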
Outline: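 IL-6/STAT signaling read in ME-180 cells via an SIE beta-lactamase reporter. Stimulus was 40 pM IL-6 (its AC50) for 5 hrs, so both activation and inhibition register.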

[4] = target: Cytochrome P450 3A4 (Homo sapiens) (UniProt P08684); assay: qHTS Assay for Activators of Cytochrome P450 3A4 (AID 885; active means well fitted curve in the direction sought with a large enough effect; inconclusive means small, poorly fitted or top-dose-only effect, or another doubt; inactive means no such curve, though single readings can be large; an effect the other way counts as inactive or inconclusive; further: potency means the concentration at half of the fitted maximal effect; nearly all actives have a fitted effect of over 65% in size)
Outline: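 Quantitative HTS format: compounds preincubated with 20nM human CYP3A4 and Luciferin-PPXE substrate at KM, reaction started by NADPH regeneration, stopped after 60 min, luciferase luminescence read 20 min later.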

[5] = qHTS Assay for Identification of Small Molecule Agonists for Hypoxia Response Element Signaling Pathway (AID 914; active means well fitted activation curve with a large enough effect in the signal ratio, with a control signal flat, not every such curve was filed as active; inconclusive means small, poorly fitted or top-dose-only effect, or effect the other way, or a change in a side signal; the % refers to the signal ratio; further: potency means the concentration at half of the fitted maximal effect; on activation: top concentration of the series differs between compounds; % of control where 0% means no effect); conditions: ME-180 HRE-bla reporter, beta-lactamase ratio, CoCl2, 17 h; activation: stronger effect = higher value
Outline: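 Reporter activity (beta-lactamase, CCF4 460nm/530nm ratio) in HRE-bla ME-180 cells is recorded after 17 h compound exposure with EC50 CoCl2 at 37 degrees Celsius. AC50 values come from titration data.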

[6] = qHTS Assay for Identification of Small Molecule Antagonists for NFkB Signaling Pathway (AID 895; active means well fitted inhibition curve with a large enough effect in the signal ratio, with a control signal flat, not every such curve was filed as active; inconclusive means small, poorly fitted or top-dose-only effect, or effect the other way, or a change in a side signal; the % refers to the signal ratio; further: potency means the concentration at half of the fitted maximal effect); conditions: NFkB beta-lactamase reporter cells, FRET ratio 460/530, stimulated with 10 pM TNF alpha; activity change, negative = inhibition: at 38.3 µM (top of the series)
Outline: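 NFkB-bla ME-180 cervical carcinoma cells with beta-lactamase reporter under NFkB response element; compounds added, then TNF alpha at 10 pM final (EC50), 5 h at 37 C. LiveBLAzer substrate 2 h, room temperature; emission 460/530 nm at 405 nm excitation.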

[7] = qHTS Assay for Identification of Small Molecule Agonists for Thrombopoietin (TPO) Signaling Pathway (AID 917; active means well fitted curve in the direction sought with a large enough effect; inconclusive means small, poorly fitted or top-dose-only effect, or another doubt; inactive means no such curve, though single readings can be large; an effect the other way counts as inactive or inconclusive; further: on the % scale 0 is the no-effect control and ±100 the full control effect); conditions: TPO signaling pathway reporter cells, agonist qHTS, stimulated with TPO at its EC50; activity, positive = activation: at 38.5 µM (top of the series)
Outline: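 Reporter: GpIIb promoter–luciferase in murine Ba/F3 expressing human TPO receptor. Pre-starved of IL-3 overnight; compounds with 26 pM TPO, 24 hrs, 37 C/5% CO2; luminescence read.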

[8] = qHTS Assay for Identification of Small Molecule Agonists for NFkB Signaling Pathway (AID 928; calls by dose curve); conditions: NFkB beta-lactamase reporter cells, blue/green ratio
Outline: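 ME-180 NFkB-bla cells carry a beta-lactamase reporter under an NFkB response element. Compound plus 10 pM TNF alpha (final) was applied for 5 hrs at 37 C. After 2 hrs with LiveBLAzer substrate, 460/530 nm emission was read at 405 nm excitation.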

[9] = target: Muscarinic acetylcholine receptor M1 (Rattus norvegicus) (UniProt P08482); assay: qHTS Assay for Antagonists of Acetylcholine Muscarinic M1 Receptor: Measurement of IP-One Response (AID 944; active means well fitted curve in the direction sought with a large enough effect; inconclusive means small, poorly fitted or top-dose-only effect, or another doubt; inactive means no such curve, though single readings can be large; an effect the other way counts as inactive or inconclusive; further: nearly all actives have a fitted effect of over 75% in size)
Tags describe the fitted curve by direction and shape or compound fluorescence and quenching.

UniProt P08684, sequence (P08684 whole entry, looked up): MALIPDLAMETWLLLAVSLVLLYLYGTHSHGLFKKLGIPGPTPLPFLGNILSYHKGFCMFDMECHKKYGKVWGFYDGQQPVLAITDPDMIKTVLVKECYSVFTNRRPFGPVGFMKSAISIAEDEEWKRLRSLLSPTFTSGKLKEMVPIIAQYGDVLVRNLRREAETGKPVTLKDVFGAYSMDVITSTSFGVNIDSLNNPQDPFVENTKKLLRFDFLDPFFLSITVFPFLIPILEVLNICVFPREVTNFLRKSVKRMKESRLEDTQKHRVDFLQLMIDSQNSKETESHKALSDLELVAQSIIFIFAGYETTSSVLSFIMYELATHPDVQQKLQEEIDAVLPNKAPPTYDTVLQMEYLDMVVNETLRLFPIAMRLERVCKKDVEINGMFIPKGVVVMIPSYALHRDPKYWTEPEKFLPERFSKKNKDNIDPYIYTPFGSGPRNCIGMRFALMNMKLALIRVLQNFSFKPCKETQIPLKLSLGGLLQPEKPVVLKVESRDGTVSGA
UniProt P08482, sequence (P08482 whole entry, looked up): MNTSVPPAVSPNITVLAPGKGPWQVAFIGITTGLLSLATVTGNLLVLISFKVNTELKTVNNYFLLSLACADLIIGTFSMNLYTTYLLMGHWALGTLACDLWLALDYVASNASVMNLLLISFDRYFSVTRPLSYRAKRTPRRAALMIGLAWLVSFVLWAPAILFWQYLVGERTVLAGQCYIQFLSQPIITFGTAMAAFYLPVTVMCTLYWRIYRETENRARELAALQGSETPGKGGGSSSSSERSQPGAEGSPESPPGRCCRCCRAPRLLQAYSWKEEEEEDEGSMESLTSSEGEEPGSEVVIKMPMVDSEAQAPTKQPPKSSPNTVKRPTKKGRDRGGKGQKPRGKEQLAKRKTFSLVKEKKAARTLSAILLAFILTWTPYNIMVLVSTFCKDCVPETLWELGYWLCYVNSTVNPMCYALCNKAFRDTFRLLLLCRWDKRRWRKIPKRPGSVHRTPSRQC

SMILES: CN(C)c1ncc2nc(-c3ccc(F)cc3)c(=O)n(Cc3ccc(F)cc3)c2n1
- activity change, negative = inhibition [1]: inconclusive: 44.3% [activator] [at 7.69 µM]
- activity change, negative = inhibition [2]: inconclusive: 82% [activator] [at 7.69 µM]
- activity, negative = inhibition [3]: inconclusive: 96.2% [activator]
- Potency [4]: inconclusive: 2.51 µM [activator, single point]
- Potency [5]: active: 3.16 µM

SMILES: COc1ccccc1N=Cc1nc(-c2ccccc2)oc1OC(C)=O
- activity change, negative = inhibition [1]: inconclusive: 67% [inhibitor]
- activity change, negative = inhibition [2]: inconclusive: -105% [inhibitor]
- activity, negative = inhibition [3]: inconclusive: -72.2% [inhibitor] [at 17.2 µM]
- Potency [5]: inconclusive: 5.01 µM [inhibitor, partial curve]

SMILES: N#CC(C(=O)NC1CC1)c1nc2ccccc2nc1N1CCN(C/C=C/c2ccccc2)CC1 (stereo unspecified)
- activity change, negative = inhibition [1]: inconclusive: -44.5% [inhibitor]
- activity change, negative = inhibition [2]: inconclusive: -75.8% [inhibitor]
- activity, negative = inhibition [3]: inconclusive: -28.1% [inhibitor] [at 17.2 µM]
- Potency [5]: inconclusive: 12.6 µM [side channel, rising, single point]

SMILES: CC1(C)Cc2c(C#N)c(N3CCN(C(=O)c4ccco4)CC3)nc(Cc3ccccc3)c2CO1
- activity change, negative = inhibition [1]: inconclusive: -32.1% [inhibitor]
- activity change, negative = inhibition [2]: inconclusive: -96.4% [inhibitor]
- activity, negative = inhibition [3]: inconclusive: -30.9% [inhibitor] [at 17.2 µM]
- Potency [5]: inconclusive: 12.6 µM [inhibitor, single point]

SMILES: COC(=O)c1ccc(Cn2cnc3c(sc4nc(N5CCOCC5)c5c(c43)CCCC5)c2=O)o1
- activity change, negative = inhibition [1]: inconclusive: -45% [inhibitor]
- activity change, negative = inhibition [2]: inconclusive: -0.443% [inhibitor]
- activity, negative = inhibition [3]: inactive: -11.4% [at 17.2 µM]
- activation [5]: inconclusive: 17.4%

SMILES: N#Cc1nc(-c2cccs2)oc1NCc1ccc2c(c1)OCO2
- activity change, negative = inhibition [1]: inconclusive: -40.6% [inhibitor]
- activity change, negative = inhibition [2]: inconclusive: -31.5% [inhibitor]
- activity, negative = inhibition [3]: inconclusive: -34.9% [inhibitor] [at 17.2 µM]
- activation [5]: inconclusive: -22.9%

SMILES: COc1cccc2c1[C@H](CO)N1[C@H](C#N)[C@@H]3C[C@H](C(=O)O)[C@@H]([C@@H]1C2)N3C
- activity change, negative = inhibition [1]: inconclusive: -110% [inhibitor] [at 7.69 µM]
- activity change, negative = inhibition [2]: active: -126% [at 7.69 µM]
- activity, negative = inhibition [3]: inconclusive: -74.8% [inhibitor]
- Potency [5]: inconclusive: 1 µM [cytotoxic, side channel, single point]

SMILES: Nc1ncnc2c1ncn2[C@@H]1O[C@@H](CO)[C@H](O)[C@@H]1O
- activity change, negative = inhibition [1]: inconclusive: 54.4% [activator] [at 38 µM]
- activity change, negative = inhibition [2]: inactive: 4.32% [at 38 µM]
- activity, negative = inhibition [3]: inconclusive: 34% [activator] [at 38 µM]
- Potency [6]: active: 4.47 µM
- Potency [7]: inactive
- Potency [8]: inconclusive: 4.47 µM [inhibitor, partial curve]
- Potency [9]: inactive
